{"source": "the supplement of paper PMC8728848", "binders": {"B1": {"name": "FGFR2-Fc (protein)", "chain": "MVNVTDAISSGDDEDDTDGAEDFVSENSNNKRAPYWTNTEKMEKRLHAVPAANTVKFRCPAGGNPMPTMRWLKNGKEFKQEHRIGGYKVRNQHWSLIMESVVPSDKGNYTCVVENEYGSINHTYHLDVVERSPHRPILQAGLPANASTVVGGDVEFVCKVYSDAQPHIQWIKHVEKNGSKYGPDGLPYLKVLKHSGINSSNAEVLALFNVTEADAGEYICKVSNYIGQANQSAWLTVLPKQQAPGREKEITASPDYLETRPLEQKLISEEDLAANDILDYKDDDDKV"}}, "experiment_in_all_cases": "glycan array binding signal (z-score within array); higher = stronger binding", "settings_in_all_cases": "glycan notation: IUPAC condensed, linker removed", "key": {"[1]": {"molecular_target": "Fuc(a1-2)Gal(b1-4)GlcNAc(b1-3)Gal(b1-4)GlcNAc(b1-3)Gal(b1-4)GlcNAc", "method_in_brief": "(§1)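 Columns mapping to the same glycan were averaged after glycan names were converted to IUPAC-condensed notation. The data come from 3228 arrays in the Consortium for Functional Glycomics database, limited to those with an available protein sequence. Binding is reported as a within-array Z-score averaged across arrays of one protein sequence and across linkers.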"}, "[2]": {"molecular_target": "Fuc(a1-2)Gal(b1-4)GlcNAc(b1-3)GalNAc", "method_in_brief": "as §1"}, "[3]": {"molecular_target": "Fuc(a1-2)Gal(b1-4)GlcNAc(b1-3)[Fuc(a1-2)Gal(b1-4)GlcNAc(b1-6)]GalNAc", "method_in_brief": "as §1"}, "[4]": {"molecular_target": "Fuc(a1-2)Gal(b1-4)GlcNAc(b1-3)[Fuc(a1-3)[Gal(b1-4)]GlcNAc(b1-6)]Gal(b1-4)Glc", "method_in_brief": "as §1"}, "[5]": {"molecular_target": "Fuc(a1-2)Gal(b1-4)GlcNAc(b1-6)GalNAc", "method_in_brief": "as §1"}, "[6]": {"molecular_target": "Fuc(a1-2)Gal(b1-4)GlcNAc6S", "method_in_brief": "as §1"}, "[7]": {"molecular_target": "Fuc(a1-2)Gal(b1-4)[Fuc(a1-3)]GlcNAc", "method_in_brief": "as §1"}, "[8]": {"molecular_target": "Fuc(a1-2)Gal(b1-4)[Fuc(a1-3)]GlcNAc(b1-2)Man(a1-3)[Fuc(a1-2)Gal(b1-4)[Fuc(a1-3)]GlcNAc(b1-2)Man(a1-6)]Man(b1-4)GlcNAc(b1-4)[Fuc(a1-6)]GlcNAc", "method_in_brief": "as §1"}, "[9]": {"molecular_target": "Fuc(a1-2)Gal(b1-4)[Fuc(a1-3)]GlcNAc(b1-2)[Fuc(a1-2)Gal(b1-4)[Fuc(a1-3)]GlcNAc(b1-4)]Man(a1-3)[Fuc(a1-2)Gal(b1-4)[Fuc(a1-3)]GlcNAc(b1-2)Man(a1-6)]Man(b1-4)GlcNAc(b1-4)GlcNAc", "method_in_brief": "as §1"}, "[10]": {"molecular_target": "Fuc(a1-2)Gal(b1-4)[Fuc(a1-3)]GlcNAc(b1-3)Gal(b1-4)[Fuc(a1-3)]GlcNAc", "method_in_brief": "as §1"}, "[11]": {"molecular_target": "Fuc(a1-2)Gal(b1-4)[Fuc(a1-3)]GlcNAc(b1-3)Gal(b1-4)[Fuc(a1-3)]GlcNAc(b1-3)Gal(b1-4)[Fuc(a1-3)]GlcNAc", "method_in_brief": "as §1"}, "[12]": {"molecular_target": "Fuc(a1-2)Gal(b1-4)[Fuc(a1-3)]GlcNAc(b1-3)GalNAc", "method_in_brief": "as §1"}, "[13]": {"molecular_target": "Fuc(a1-2)Gal(b1-4)[Fuc(a1-3)]GlcNAc(b1-3)[Neu5Ac(a2-6)Gal(b1-4)GlcNAc(b1-6)]Gal(b1-4)Glc", "method_in_brief": "as §1"}, "[14]": {"molecular_target": "Fuc(a1-2)Gal3S(b1-4)GlcNAc", "method_in_brief": "as §1"}, "[15]": {"molecular_target": "Fuc(a1-2)Gal6S(b1-3)GlcNAc", "method_in_brief": "as §1"}, "[16]": {"molecular_target": "Fuc(a1-2)Gal6S(b1-3)GlcNAc6S", "method_in_brief": "as §1"}, "Fuc(a1-2)Gal6S(b1-4)Glc": {"molecular_target": "Fuc(a1-2)Gal6S(b1-4)Glc", "method_in_brief": "as §1"}, "[17]": {"molecular_target": "Fuc(a1-2)Gal6S(b1-4)Glc6S", "method_in_brief": "as §1"}, "Fuc(a1-2)[Gal(a1-3)]Gal": {"molecular_target": "Fuc(a1-2)[Gal(a1-3)]Gal", "method_in_brief": "as §1"}, "[18]": {"molecular_target": "Fuc(a1-2)[Gal(a1-3)]Gal(b1-3)GalNAc", "method_in_brief": "as §1"}, "[19]": {"molecular_target": "Fuc(a1-2)[Gal(a1-3)]Gal(b1-3)GalNAc(b1-3)Gal(a1-4)Gal(b1-4)Glc", "method_in_brief": "as §1"}, "[20]": {"molecular_target": "Fuc(a1-2)[Gal(a1-3)]Gal(b1-3)GlcNAc", "method_in_brief": "as §1"}, "[21]": {"molecular_target": "Fuc(a1-2)[Gal(a1-3)]Gal(b1-3)GlcNAc(b1-2)Man(a1-3)[Fuc(a1-2)[Gal(a1-3)]Gal(b1-3)GlcNAc(b1-2)Man(a1-6)]Man(b1-4)GlcNAc(b1-4)GlcNAc", "method_in_brief": "as §1"}, "[22]": {"molecular_target": "Fuc(a1-2)[Gal(a1-3)]Gal(b1-3)GlcNAc(b1-2)Man(a1-3)[Fuc(a1-2)[Gal(a1-3)]Gal(b1-3)GlcNAc(b1-2)Man(a1-6)]Man(b1-4)GlcNAc(b1-4)[Fuc(a1-6)]GlcNAc", "method_in_brief": "as §1"}, "[23]": {"molecular_target": "Fuc(a1-2)[Gal(a1-3)]Gal(b1-3)GlcNAc(b1-3)GalNAc", "method_in_brief": "as §1"}, "[24]": {"molecular_target": "Fuc(a1-2)[Gal(a1-3)]Gal(b1-3)GlcNAc(b1-6)GalNAc", "method_in_brief": "as §1"}, "[25]": {"molecular_target": "Fuc(a1-2)[Gal(a1-3)]Gal(b1-4)Glc", "method_in_brief": "as §1"}, "[26]": {"molecular_target": "Fuc(a1-2)[Gal(a1-3)]Gal(b1-4)GlcNAc", "method_in_brief": "as §1"}, "[27]": {"molecular_target": "Fuc(a1-2)[Gal(a1-3)]Gal(b1-4)GlcNAc(b1-2)Man", "method_in_brief": "as §1"}, "[28]": {"molecular_target": "Fuc(a1-2)[Gal(a1-3)]Gal(b1-4)GlcNAc(b1-2)Man(a1-3)[Fuc(a1-2)[Gal(a1-3)]Gal(b1-4)GlcNAc(b1-2)Man(a1-6)]Man(b1-4)GlcNAc(b1-4)GlcNAc", "method_in_brief": "as §1"}}, "note": "The list shows a part of the results.", "data": [{"binder": "B1", "values": [{"measurement": "glycan array binding signal (z-score)", "setting": "[1]", "value": 0.121}, {"measurement": "glycan array binding signal (z-score)", "setting": "[2]", "value": -0.058}, {"measurement": "glycan array binding signal (z-score)", "setting": "[3]", "value": -0.13}, {"measurement": "glycan array binding signal (z-score)", "setting": "[4]", "value": 0.233}, {"measurement": "glycan array binding signal (z-score)", "setting": "[5]", "value": -0.267}, {"measurement": "glycan array binding signal (z-score)", "setting": "[6]", "value": 0.683}, {"measurement": "glycan array binding signal (z-score)", "setting": "[7]", "value": 0.349}, {"measurement": "glycan array binding signal (z-score)", "setting": "[8]", "value": 0.212}, {"measurement": "glycan array binding signal (z-score)", "setting": "[9]", "value": 0.812}, {"measurement": "glycan array binding signal (z-score)", "setting": "[10]", "value": 0.919}, {"measurement": "glycan array binding signal (z-score)", "setting": "[11]", "value": -0.25}, {"measurement": "glycan array binding signal (z-score)", "setting": "[12]", "value": -0.401}, {"measurement": "glycan array binding signal (z-score)", "setting": "[13]", "value": -0.32}, {"measurement": "glycan array binding signal (z-score)", "setting": "[14]", "value": -0.391}, {"measurement": "glycan array binding signal (z-score)", "setting": "[15]", "value": -0.744}, {"measurement": "glycan array binding signal (z-score)", "setting": "[16]", "value": 0.019}, {"measurement": "glycan array binding signal (z-score)", "setting": "Fuc(a1-2)Gal6S(b1-4)Glc", "value": -0.378}, {"measurement": "glycan array binding signal (z-score)", "setting": "[17]", "value": -0.603}, {"measurement": "glycan array binding signal (z-score)", "setting": "Fuc(a1-2)[Gal(a1-3)]Gal", "value": 0.211}, {"measurement": "glycan array binding signal (z-score)", "setting": "[18]", "value": 0.062}, {"measurement": "glycan array binding signal (z-score)", "setting": "[19]", "value": -0.58}, {"measurement": "glycan array binding signal (z-score)", "setting": "[20]", "value": -0.345}, {"measurement": "glycan array binding signal (z-score)", "setting": "[21]", "value": -0.096}, {"measurement": "glycan array binding signal (z-score)", "setting": "[22]", "value": -0.319}, {"measurement": "glycan array binding signal (z-score)", "setting": "[23]", "value": -0.093}, {"measurement": "glycan array binding signal (z-score)", "setting": "[24]", "value": 0.66}, {"measurement": "glycan array binding signal (z-score)", "setting": "[25]", "value": -0.002}, {"measurement": "glycan array binding signal (z-score)", "setting": "[26]", "value": -0.525}, {"measurement": "glycan array binding signal (z-score)", "setting": "[27]", "value": -0.6}, {"measurement": "glycan array binding signal (z-score)", "setting": "[28]", "value": 0.745}]}]}
